Experimental data reported in article PMC4336329 (PLoS ONE, 2015).
Hit rate of the full screen: of about 310,000 compounds, about 2,200 (0.71%) showed an effect of 50% or more. The effect is printed as a negative number. Some of the results follow.

Target: human ether-à-go-go-related gene (hERG) potassium channel (human, UniProt Q12809)
Assay: primary screen, population patch clamp on CHO cells stably expressing hERG

Sequence of human ether-à-go-go-related gene (hERG) potassium channel (Q12809 whole entry, looked up): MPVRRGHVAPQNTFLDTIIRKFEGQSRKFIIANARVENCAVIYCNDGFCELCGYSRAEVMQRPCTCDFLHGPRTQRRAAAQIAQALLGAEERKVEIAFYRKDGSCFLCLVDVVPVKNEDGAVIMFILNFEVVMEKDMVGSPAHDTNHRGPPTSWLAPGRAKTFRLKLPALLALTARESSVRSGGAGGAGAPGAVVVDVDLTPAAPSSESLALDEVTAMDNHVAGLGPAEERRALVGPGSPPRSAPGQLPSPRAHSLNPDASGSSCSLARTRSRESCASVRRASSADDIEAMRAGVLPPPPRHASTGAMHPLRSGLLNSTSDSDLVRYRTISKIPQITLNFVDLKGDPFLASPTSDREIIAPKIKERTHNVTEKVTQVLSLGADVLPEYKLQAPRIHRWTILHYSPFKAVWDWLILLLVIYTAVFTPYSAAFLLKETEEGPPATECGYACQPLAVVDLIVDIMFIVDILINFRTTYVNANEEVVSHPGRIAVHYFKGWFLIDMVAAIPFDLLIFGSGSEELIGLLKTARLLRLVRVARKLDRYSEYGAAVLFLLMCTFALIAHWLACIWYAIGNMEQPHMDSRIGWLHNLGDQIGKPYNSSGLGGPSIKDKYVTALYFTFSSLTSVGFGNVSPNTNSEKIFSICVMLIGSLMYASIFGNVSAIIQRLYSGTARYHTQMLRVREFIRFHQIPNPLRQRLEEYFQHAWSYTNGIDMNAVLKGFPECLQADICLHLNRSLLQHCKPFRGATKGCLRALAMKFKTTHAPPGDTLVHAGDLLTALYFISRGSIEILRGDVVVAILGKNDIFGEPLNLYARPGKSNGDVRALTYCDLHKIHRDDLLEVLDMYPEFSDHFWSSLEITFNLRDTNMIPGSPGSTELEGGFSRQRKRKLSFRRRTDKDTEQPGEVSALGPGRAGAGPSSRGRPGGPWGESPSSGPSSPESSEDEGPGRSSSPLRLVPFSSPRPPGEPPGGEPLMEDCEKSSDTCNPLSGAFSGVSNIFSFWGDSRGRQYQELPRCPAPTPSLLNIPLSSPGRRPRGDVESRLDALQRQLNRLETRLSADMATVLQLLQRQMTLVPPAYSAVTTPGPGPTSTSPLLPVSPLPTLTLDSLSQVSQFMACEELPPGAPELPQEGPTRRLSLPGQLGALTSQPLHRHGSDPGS

SMILES | hERG current change (%, negative = inhibition) at 1uM
CCCNC(=O)CN(c1cccc(F)c1)S(C)(=O)=O | 3.53%
CC1CCCN(CCCNC(=O)CN2C(=O)COc3ccc(S(=O)(=O)N4CCOCC4)cc32)C1 (stereo not drawn) | 14.1%
COc1ccc(S(=O)(=O)Cc2ccc(C(=O)NC3CCCC3)o2)cc1 | 1.69%
CCOc1ccc(NC2OC(C)C(O)C(O)C2O)c([N+](=O)[O-])c1 (stereo not drawn) | 14.5%
COc1ccc(N=C2C(=Nc3ccc(OC)cc3)N(c3ccc(OC)cc3)C(=S)N2c2ccccc2)cc1 | 12.7%
CCOc1ccc(C(=O)NCC2CCCN2S(=O)(=O)c2cccs2)cc1 (stereo not drawn) | 10.6%
CCN1CCc2nc(NC(=O)CC(c3ccccc3)c3ccccc3)sc2C1 | 6.48%
COc1ccc([C@H]2C=C(C(=O)O)O[C@@H](OCc3ccc(CO)cc3)C2)cc1 | 16.4%
CN1OC(CC(=O)O)N(c2ccc(Cl)cc2)C1=O (stereo not drawn) | 16.4%
COc1ccc(OC)c(C2CC(=O)c3c([nH]c(C(=O)OC(C)C)c3C)C2)c1 (stereo not drawn) | 4.74%
Cc1ccc(-c2nnn(CC(=O)N(Cc3ccco3)C(C(=O)NC3CCCC3)c3cccs3)n2)o1 (stereo not drawn) | 15.2%
Cc1cc2oc(C(=O)N3CCN(Cc4ccccc4)CC3)c(C)c2cc1C | 7.53%
CC(C)Oc1ccc(CNCC2(O)CCOC(C)(C)C2)cc1 (stereo not drawn) | 11.2%
CCOc1ccc(N2CC(C(=O)Nc3ccc(F)cc3F)CC2=O)cc1 (stereo not drawn) | 8.2%
CCc1ccc(CN(C)Cc2nc(Cc3cccc(C(F)(F)F)c3)no2)nc1 | 10.3%
Cc1cccc(C)c1OCC(=O)Nc1ccc(NC(=O)c2ccco2)cc1 | 9.92%
Cc1cccc(-n2c(SCC(N)=O)nnc2-c2ccco2)c1 | 4.74%
Cc1ccccc1N=CC1=C(O)c2ccccc2C1=O | 6.54%
N#CCCN(Cc1cccnc1)C(=S)Nc1ccc(OC(F)F)cc1 | -30.8%
O=c1cc(CN2CCN(c3ccc(F)cc3)CC2)c2cc3c(cc2o1)CCCC3 | 13.5%
O=C(COc1cccc(NC(=O)c2cccs2)c1)c1ccc(F)cc1 | 5.77%
O=C(CSc1ncnc2c1cnn2-c1ccccc1)NCC1CCCO1 (stereo not drawn) | 0.396%

SMILES | hERG current change (%, negative = inhibition) at 1uM
N#CCc1nc2n(n1)Cc1ccccc1-2 | -0.58%
O=C(c1cc2cc(Cl)ccc2[nH]1)N1CCc2ccccc2C1 | 16.9%
O=C(CSc1nnc(-c2ccncc2)n1CCc1ccccc1)N1CCCC1 | 14.1%
CN(C)S(=O)(=O)N(CC(=O)Nc1ccc(S(=O)(=O)N2CCCC2)cc1)c1ccccc1 | -12.6%
c1ccc(-c2nnc(C3CC(c4cccnc4)=NO3)o2)cc1 (stereo not drawn) | 11.1%
COc1ccccc1-c1nnc(SCC(=O)Nc2ccccc2)o1 | 2.87%
CCCCCCCCc1nc(SC(C)C(=O)O)n[nH]1 (stereo not drawn) | 7.12%
O=C(Nc1cccc(Br)c1)c1ccc(CN2CCc3ccccc3C2)cc1 | 6.53%
COC(=O)c1cc(-c2ccc(OC)cc2)nc2nc(SC)[nH]c(=O)c12 | 11.5%
CCCCOC(=O)c1ccc(NC(=O)C(=O)NCc2ccccn2)cc1 | 13.5%
O=C(CCNC(=O)c1ccccc1Cl)NCc1ccncc1 | 9.03%
O=C(Nc1ccccc1F)Nc1ccccc1N1CCCCC1 | 10.4%
Cc1cc(C(=O)NNC(=O)c2ccc(C(F)(F)F)cc2)no1 | 17.7%
O=c1oc2ccccc2c(O)c1Cc1cc(Cl)c2cccnc2c1O | 14.7%
O=C(NCc1ccccc1)C1C2C=CC3(CN(Cc4cccnc4)C(=O)C13)O2 (stereo not drawn) | 12.6%
O=Cc1ccc2noc(-c3ccc(Cl)cc3)c2c1 | 1.55%
COc1ccccc1N1CCN(C(=O)Cc2cccs2)CC1 | -1.14%
COCCn1c(-c2ccc(OC)cc2)nc2oc3cc(OC)ccc3c(=O)c2c1=O | -10.3%
Cc1noc(C)c1COc1ccc(CC(=O)NC2CCCCCC2)cc1 | 17.8%
CC(O)(CS(=O)(=O)Cc1ccccc1)c1ccc(Cl)cc1 (stereo not drawn) | 9.03%
Cc1ccccc1-c1cccc([C@@H]2C[C@H]3CN(Cc4cccnc4)C(=O)[C@]34CCCN24)c1 | -15.9%
Cc1cc(=O)oc2cc(OCC(=O)NC3CCN(Cc4ccccc4)CC3)ccc12 | 14.5%

SMILES | hERG current change (%, negative = inhibition) at 1uM
O=C1CN(O)C(c2ccccc2)=c2cc(Br)ccc2=N1 | 15.1%
CCOC(=O)c1c(O)c2c([nH]c1=O)CCCC2 | 11.3%
CS(=O)(=O)C1=NSC2=NC(=O)/C(=C\c3cccn3-c3ccccc3Cl)C(=N)N21 | 22.2%
O=C(O)c1ccc(NC(=O)c2ccc(Cl)cc2)c(NC(=O)c2ccc(Cl)cc2)c1 | 18.1%
COc1ccc(OC)c(NC(=O)CN(c2ccc(C)cc2)S(=O)(=O)c2c(C)noc2C)c1 | 14.2%
O=C(NCCc1cn[nH]c1)C1CCC(=O)N(CCc2cccc(F)c2)C1 (stereo not drawn) | 15.5%
O=C(CSc1ccc(Cl)cc1)N1N=CCC1c1ccccc1 (stereo not drawn) | 5.22%
CC(=O)NCCc1c[nH]c2ccc(OCC(O)CNC(C)(C)C)cc12.O=C(O)c1ccccc1 (stereo not drawn) | 16.7%
COc1ccc2c(c1)CCC/C2=N\Nc1nc(C(=O)NN)cs1 | 5.95%
COc1cc(OC)cc(C(=O)Nc2nc3ccc(S(C)(=O)=O)cc3s2)c1 | 10.8%
COc1cccc(CNc2nc3ccccc3n2CCN2CCCCC2)c1OC | -15.1%
CN(CCOc1ccc(Br)cc1)CC(=O)Nc1cccc(S(=O)(=O)NC2=NCCC2)c1 | 16.5%
O=C(Nc1ccc(Nc2ccncc2)cc1)c1ccc([N+](=O)[O-])cc1 | -34.7%
Cn1c(N)c(C(=O)COC(=O)COc2ccc(Cl)cc2)c(=O)n(C)c1=O | 2.63%
COc1ccc(NC(=O)COc2ccc3oc(=O)cc(C)c3c2)cc1 | 5.33%
CC(C)C(C)NC(=O)COc1nc2ccccc2nc1N(C)C1CCCCC1 (stereo not drawn) | 19.5%
CSc1ccc(N=Nc2c(C)[nH]n(C)c2=O)cc1 | 6.21%
CCc1ccc(CC2S/C(=C(\C#N)C(C)=O)NC2=O)cc1 (stereo not drawn) | 8.45%
C=CCn1c(CSc2nc3ccccc3s2)nnc1SCC(=O)NCc1ccco1 | 4.51%
CCN(CC)c1ccc(NC(=O)c2ccc3c(c2)c(C)c(C)n3C)cc1 | 0.0326%
CCN(CC)CCCN(Cc1cc2cc3c(cc2[nH]c1=O)OCO3)C(=S)NCCCOC | -1.26%
COC(=O)c1ccc(C(=O)Nc2nc3cc(N)c(C)cc3s2)cc1 | 10.3%

SMILES | hERG current change (%, negative = inhibition) at 1uM
COc1cc(NC(=O)C2CCC(CNS(=O)(=O)c3csc(C(N)=O)c3)CC2)cc(OC)c1 (stereo not drawn) | 16.2%
N#Cc1c(NC(=O)c2ccncc2)sc2c1CCC2 | 5.7%
CSc1cccc(NC(=O)c2cc(S(=O)(=O)N3CCCCC3)c[nH]2)c1 | 13.6%
COc1ccc(C2Nc3ccccc3C(=O)N2c2ccc(F)cc2)cc1Cn1nnc2ccccc21 (stereo not drawn) | 5.99%
Cc1ccc(/C=N/NC(=O)CNC(=O)c2cccs2)o1 | 22%
CCOc1cc2c(cc1OCC)CN(C(=O)c1cccc(S(=O)(=O)N3CCCC3)c1)CC2 | 13.1%
Cn1c(SCC(=O)NC2CC2)nnc1C1CC1 | -0.518%
CC(C)NC(=O)c1c(CSc2ccc(Cl)cc2)noc1C(=O)NCc1ccccc1 | -2.81%
CC(C)CN1CCN(Cc2cc(F)ccc2-n2cccn2)CC1CCO (stereo not drawn) | 3.57%
COc1cc(C(=O)NCCC(=O)NC2CCCCC2)cc(OC)c1OC | 14.9%
Cc1cccn2cc(CCNS(=O)(=O)c3cccc([N+](=O)[O-])c3)nc12 | 7.97%
O=C(CSc1ccc(Br)cc1)N1CCN(C(=O)c2ccco2)CC1 | -34.2%
Cc1ccc2[nH]c(C)c(CCNCc3cccnc3)c2c1.Cl | 14.7%
S=C(Nc1ccc(OCc2ccccc2)cc1)Nc1cccc(Cl)c1Cl | 6.91%
O=c1[nH]c(/C=C/c2ccc(OC(F)F)cc2)nc2c1cnn2-c1ccccc1 | 27.5%
COc1ccc(OC)c(C(c2nnnn2C2CCCC2)N2CCN(c3ccc(F)cc3)CC2)c1 (stereo not drawn) | -13.6%
Cc1ccc2c(c1)C(O)(C1COC(C)(C)CC1=O)C(=O)N2C (stereo not drawn) | 3.32%
COC(=O)COc1ccc(/C=N/NC(=O)CN(c2ccccc2OC)S(=O)(=O)c2ccccc2)cc1 | 12.1%
O=C1CCN(C(=O)CNC(=O)Cc2ccccc2)CC1 | 8.64%
O=C(OCC(=O)N1CCCCC1)c1c[nH]c2ccccc12 | -0.139%
Cc1ccc(N(Cc2ccccc2)C(=O)c2cccc(S(=O)(=O)N3CCOCC3)c2)cc1 | -15.3%
